Some of the results follow.
T1: UNK ZnF1-6 (called full-length) (human, UniProt Q9C0B0 30-357)
T1 sequence: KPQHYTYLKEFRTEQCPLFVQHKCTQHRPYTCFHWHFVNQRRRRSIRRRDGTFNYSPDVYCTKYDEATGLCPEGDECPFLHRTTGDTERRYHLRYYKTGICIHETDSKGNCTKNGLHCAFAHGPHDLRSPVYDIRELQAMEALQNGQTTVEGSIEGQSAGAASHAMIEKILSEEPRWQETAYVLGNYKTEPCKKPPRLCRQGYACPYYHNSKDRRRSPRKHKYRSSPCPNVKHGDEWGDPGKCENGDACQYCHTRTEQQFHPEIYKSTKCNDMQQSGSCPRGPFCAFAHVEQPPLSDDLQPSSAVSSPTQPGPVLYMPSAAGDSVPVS

B1: chr7:20412070:20412171:+|3pUTR|ENSG00000105855|msi1|FALSE|unique (ssRNA)
RNA: GGGAGUUCUACAGUCCGACGAUCCUUUUUUUUUAUAAUAAACUUCCAAGAUUUGCUGUCUUCCAGCACUUGAGUUAAAGUACUAGAUACUGCAUUUUGAUGAAGACUAACCCCAUCUCAUAUUCUACCCUAAAGAGAACUGAACAACAGAGGAUUGAGCAUCA
B2: chr1:66374421:66374522:+|3pUTR|ENSG00000184588|msi1|total|mutant (ssRNA)
RNA: GGGAGUUCUACAGUCCGACGAUCACUGCAUUGUUUCAGGUGGACAUUUUAUCAUUUUCAAAUGUUUCUCACAAUGUAUGUUACCGUAUUAUUAUUAUAUAUUGUGUUCAAAUGCAUUCUAAAGAGACUUUUAUAUGAGGUGAACAACAGAGGAUUGAGCAUCA
B3: ENSG00000110906:stop:overlap|stop_codon|ENSG00000110906|stop_codon|NA|stop_codon (ssRNA)
RNA: GGGAGUUCUACAGUCCGACGAUCGCUGCCUCCCUUUACUCCCAGUCCCAUUUACAAAAAUAACGUUUGUGUUUUACCAGUUAUAGUUGUAGUACCCAUUCAUUAUAGAAAAUCUGGAAAAGCUAGACAAUUCUUUUUCAGUUUCAACAGAGGAUUGAGCAUCA
B4: chr4:65323451:65323552:-|3pUTR|ENSG00000145242|msi1|total|mutant (ssRNA)
RNA: GGGAGUUCUACAGUCCGACGAUCAUCAAGAAAAAGUACAAUACAGGGUGUAUAUUUAUUUUUUGUGUUAUAAAGUUUACUUUCCGUUGCUCUUCCCGAGAUUAUCCGGUAAUAAAUGUGUAUAUACUGUAUAAUUUGCAAUAUCAACAGAGGAUUGAGCAUCA
B5: chr10:62096657:62096758:+|3pUTR|ENSG00000150347|msi1|total|mutant (ssRNA)
RNA: GGGAGUUCUACAGUCCGACGAUCACCUCUAUGCUCUGUAAGGUGAUUAUUUGUAUACCGCAACAUGGCCCAGUGAUAUUAUACCGUUUCCCAAUGGAGAGGUUAUUGAGUAACCUUUGCAUCCGUUUAAACACUACCAGAAGACAACAGAGGAUUGAGCAUCA
B6: chr1:204554719:204554820:+|3pUTR|ENSG00000198625|unk|FALSE|unique (ssRNA)
RNA: GGGAGUUCUACAGUCCGACGAUCAAGUACUUUCUUUUGACAGAAAUUUUCAUUCUGCUUGCCAUUGCUAUAUUCUCCCUUUAUAGGAGCCAUUGGAUUUCUUUCCUUUUGUGGGAAAUGUCCCAUUAGCAUUUUCAGAUCUUUCAACAGAGGAUUGAGCAUCA
B7: chr3:87253716:87253817:+|CDS|ENSG00000083937|unk|total|mutant (ssRNA)
RNA: GGGAGUUCUACAGUCCGACGAUCUGCCUCUACUUCAAAGGCUACAAUCUCAGAUGAAGAGAUUGAACGGCAACUCAAGGCUUCCGGAGCCGAUCCGUCAAAAGAAGUCAUACUAUUUUGCUUACUUAUAAUUAUGCCGUAUAACAACAGAGGAUUGAGCAUCA
B8: chr15:75505753:75505856:-|CDS|ENSG00000169410|unk|total|mutant (ssRNA)
RNA: GGGAGUUCUACAGUCCGACGAUCGGUGAACGGCCACCCAGAUCCCUUCGAUGAGAUCAUCCUGUUCUCCCUCCCUCCUGCCUCCGACUGGGACUCAGUACAUGUUCCAGGUCCCCAUGCUAUGACCAUCCAAGAGUUGGUGGACAACAGAGGAUUGAGCAUCA
B9: chr9:113264340:113264441:+|3pUTR|ENSG00000136868|msi1|total|mutant (ssRNA)
RNA: GGGAGUUCUACAGUCCGACGAUCAAAGUCUGCAUUUGAUAUAAUGCCUUAAUUACUGGGUCUACAAUUAAUGUUGACUGUUUCCGAUUGUAAGCUCCUGGAGAGCAGUAUUGCUGCCGCCGGAAUGUUUUAACAGUGUCAUAUCAACAGAGGAUUGAGCAUCA
B10: chr1:179108573:179108674:-|CDS|ENSG00000143322|unk|total|mutant (ssRNA)
RNA: GGGAGUUCUACAGUCCGACGAUCAGCCAAGUUAUUGCCCAGAGGAGCCACAGCUCUUCCUCUCAGAACACCCUCUGGGGAUCCCGCCAUUACAGAGAAGGACCCUCCAGGGGUGGGAGUGGCUGGAGUGGCAGCUGCCCCCAACAACAGAGGAUUGAGCAUCA
B11: ENSG00000107863:be:win_2051|CDS|ENSG00000107863|bound_else_gene|NA|bound_elsewhere_windowed (ssRNA)
RNA: GGGAGUUCUACAGUCCGACGAUCCUUUAUCUGGAGCCUCUGCCAAGCCUGCCCCUCAGUCGAGUGAAAACGCUGGUACUUCAGAUUUAGAACUACCUGUCAGUCAAAGGAAUCAAGAUUUAAGUUUACAAGAGGCUGAAACUGCAACAGAGGAUUGAGCAUCA
B12: chr19:48485270:48485772:-|three_prime_utr|ENSG00000142235|control|control|control (ssRNA)
RNA: GGGAGUUCUACAGUCCGACGAUCCCCCUGACCCCCCUGACCCCCUCGGAGCCAAAUGAGGCAGGAAUCCCCCCGCCCCUCCAUAGAGAGCCGCCUUUCUCGGAACUGAACUGAACUCUUUUGGGCCUGGAGCCCCUCGACACACAACAGAGGAUUGAGCAUCA
B13: chr2:216675642:216675774:-|3pUTR|ENSG00000115461|msi1|total|mutant (ssRNA)
RNA: GGGAGUUCUACAGUCCGACGAUCUUUUUCUUUGUUUUUUUCUUUCUUCCUUUCUUUCAAAGGUUUGCAUUAACUUUUCAAAGCCGUUCCUACCGGGGCAUUGAGGAGCUUCCUCAUUCUGGGAAAACUGAGAAAACCCAUAUUCAACAGAGGAUUGAGCAUCA
B14: chr11:113738268:113738383:-|CDS|ENSG00000086827|unk|total|mutant (ssRNA)
RNA: GGGAGUUCUACAGUCCGACGAUCUGCUUUUUGGCCCAAAUGCGGGCACAGAAAGGUGAACUUCUGGAAAGAUUAUCAAGUGCCCGGAACUUUUCAAAUAUGGACGAUGAAGAGAAUUAUUCUGCAGCAAGUAAAGCAGUCCGGCAACAGAGGAUUGAGCAUCA
B15: ENSG00000124766:be:win_3751|3pUTR|ENSG00000124766|bound_else_gene|NA|bound_elsewhere_windowed (ssRNA)
RNA: GGGAGUUCUACAGUCCGACGAUCUUGUACAUUUAAGUCUGUAUUAUAAUAAGCAAAAAGAUUGUGUGUAUGUAUGUUUAAUAUAACAUGACAGGCACUAGGACGUCUGCCUUUUUAAGGCAGUUCCGUUAAGGGUUUUUGUUUCAACAGAGGAUUGAGCAUCA
B16: chr12:47968718:47968836:+|3pUTR|ENSG00000134291|unk|FALSE|unique (ssRNA)
RNA: GGGAGUUCUACAGUCCGACGAUCCUGGGAGCUUUUUGAAAAGAAAGAAAAAAGUGUGUUGGCUUUUUUUUUUUUUAGAAAGUUAGAAUUGUUUUUACCAAGAGUCUAUGUGGGGCUUGAUUCACCCUUCAUCCAUUGGCUGGACAACAGAGGAUUGAGCAUCA
B17: ENSG00000136451:be:win_2251|3pUTR|ENSG00000136451|bound_else_gene|NA|bound_elsewhere_windowed (ssRNA)
RNA: GGGAGUUCUACAGUCCGACGAUCGAUGGAAUAUAGCAUUGUAGUUGACUUUUUAAAAAAAAAAAAAAUUUAAAAAAAAUCUACAAAUUGUGUUUUGCUAAGAAAAGCCUCAACUGACAGAGGAGAAGUCAAGUGUGUGGACAGCAACAGAGGAUUGAGCAUCA
B18: ENSG00000124766:be:win_2001|3pUTR|ENSG00000124766|bound_else_gene|NA|bound_elsewhere_windowed (ssRNA)
RNA: GGGAGUUCUACAGUCCGACGAUCAUUUGGCCGAUGGCAGAUGUUUUGGGGGAACGCCGGGACUGAGAGACUCCACGCAGGCGAAUUCCCGUUUGGGGCUUUUUUUUCCUCCCUCUUUUCCCCUUGCCCCCUCUGCAGCCGGAGCAACAGAGGAUUGAGCAUCA
B19: chr2:240466480:240466663:+|3pUTR|ENSG00000063660|msi1|FALSE|unique (ssRNA)
RNA: GGGAGUUCUACAGUCCGACGAUCGGAGCCAGUGUGCCCAAAAGCCAUGUAUUUCAGGGACCUCAGGGGCACCUCCGGCUGCCUAGCCCUCCCCCCAGCUCCCUGCACCGCCGCAGAAGCAGCCCCUCGAGGCCUACAGAGGAGCAACAGAGGAUUGAGCAUCA
B20: chr1:37709127:37709197:+|3pUTR|ENSG00000134690|msi1_unk|total|mutant (ssRNA)
RNA: GGGAGUUCUACAGUCCGACGAUCUGAAGACCAAAUACUGGUUUGGAGACAACUUCCAUGUCUUGCUCUUCUACCUCCCCCGUCCGUGGAAAUUUGGAUAAGGGAACUGCCGGGCCCAGAUUCUGGAGGUUUUAUGUCAUUGGCCAACAGAGGAUUGAGCAUCA
B21: chr13:79312715:79312816:-|3pUTR|ENSG00000139746|unk|FALSE|unique (ssRNA)
RNA: GGGAGUUCUACAGUCCGACGAUCCCUUGUGAUUUAUUAUAAUGUAGCAGCAUACUUAUAAAAGUGGUCUGUGCUGAGUCAGAUAGAGAGCCCAGCCCAUUAGAAACACAUCAUAAUUUAAGAAUAUGAUGCAGAAUGCCCUUACAACAGAGGAUUGAGCAUCA
B22: chr10:128104542:128104643:-|CDS|ENSG00000148773|msi1|FALSE|unique (ssRNA)
RNA: GGGAGUUCUACAGUCCGACGAUCAAGUGAUGAGAAAAAUAUCAACACAUUUGUGGAAACUCCAGUGCAGAAACUGGACCUGCUAGGAAAUUUACCUGGCAGCAAGAGACAGCCACAGACUCCUAAGGAAAAGGCUGAGGCUCUCAACAGAGGAUUGAGCAUCA

Each binder was assayed against T1, UNK ZnF1-6 (called full-length) (assay: nsRBNS (natural sequence RNA bind-n-seq); RBNS binding buffer (assumed for nsRBNS): 25 mM Tris pH 7.5, 150 mM KCl, 3 mM MgCl2, 0.01% Triton X-100, 500 ug/ml BSA, 20 U/ml SUPERase-In, 4 C; UNK is unkempt and MSI1 is Musashi-1; names of the RNAs are library labels; protein concentration not given here; high values mean tight binding).
For B1, the binding signal was 0.837 enrichment R.
B2 was tested, and the binding signal was 0.73 enrichment R.
B3 gave a binding signal of 0.563 enrichment R.
B4 gave a binding signal of 0.757 enrichment R.
Binder B5 has a binding signal of 0.344 enrichment R.
Binder B6 has a binding signal of 1.01 enrichment R.
B7 gave a binding signal of 0.496 enrichment R.
B8 gave a binding signal of 0.838 enrichment R.
B9 showed a binding signal of 0.378 enrichment R.
B10 gave a binding signal of 0.611 enrichment R.
In the case of B11, the binding signal is reported as 0.665 enrichment R.
Work on B12 yielded a binding signal of 1.6 enrichment R.
Work on B13 yielded a binding signal of 0.435 enrichment R.
In the case of B14, the binding signal is reported as 0.391 enrichment R.
Work on B15 yielded a binding signal of 0.359 enrichment R.
B16 was tested, and the binding signal was 0.985 enrichment R.
Work on B17 yielded a binding signal of 0.963 enrichment R.
In the case of B18, the binding signal is reported as 1.02 enrichment R.
Work on B19 yielded a binding signal of 0.727 enrichment R.
In the case of B20, the binding signal is reported as 0.675 enrichment R.
With B21 the binding signal was 0.774 enrichment R.
B22 showed a binding signal of 0.671 enrichment R.

Source: PMC12136788
